Records with an inconclusive call do not appear. Unless noted, calls follow the shape of the dose curve; as a rule, active = well fitted curve in the direction sought with a large enough effect; inconclusive = small, poorly fitted or top-dose-only effect, or another doubt; inactive = no such curve, though single readings can be large; an effect the other way counts as inactive or inconclusive. The source holds more than one record for some entries. This is not the full list of results. There may be further records. The values listed for one entry repeat one measurement (runs, samples, wells, individuals or studies). More than one record can exist for a structure, and the calls need not agree. A tag in brackets gives the origin of a value. Letters hold for one entry only. Marks such as (2×) say how often a value occurs here.
What was measured:
[1] = target: Cellular tumor antigen p53 (Homo sapiens) (UniProt P04637); assay: Primary qHTS for small molecule compounds that upregulate eGFP-tagged delta133p53alpha (in N-terminal) cells. (AID 2060322); details: NCI-H358 eGFP-delta133p53alpha fluorescence, 24 h; stronger effect = higher value;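 also: cells pre-induced with doxycycline then dosed without doxycycline; 0% = DMSO vehicle and 100% = reference activator; nearly all actives have a fitted effect of over 75% in size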
Sequence of UniProt P04637 (P04637 whole entry, looked up): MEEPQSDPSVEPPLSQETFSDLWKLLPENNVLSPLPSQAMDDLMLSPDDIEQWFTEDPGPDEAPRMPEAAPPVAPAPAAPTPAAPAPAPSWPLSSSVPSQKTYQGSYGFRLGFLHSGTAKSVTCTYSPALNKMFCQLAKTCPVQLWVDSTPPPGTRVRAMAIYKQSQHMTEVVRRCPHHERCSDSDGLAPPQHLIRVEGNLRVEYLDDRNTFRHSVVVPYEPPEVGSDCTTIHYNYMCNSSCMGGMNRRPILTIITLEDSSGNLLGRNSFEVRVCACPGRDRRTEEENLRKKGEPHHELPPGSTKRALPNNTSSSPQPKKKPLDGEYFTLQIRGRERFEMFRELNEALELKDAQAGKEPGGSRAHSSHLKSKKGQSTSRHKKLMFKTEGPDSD

[2] = target: Aldehyde dehydrogenase, mitochondrial (Homo sapiens) (UniProt P05091); assay: qHTS for Inhibitors of the Aldehyde Dehydrogenase Family (ALDH2) Confirmatory screens (AID 2061303; active = well fitted inhibition curve with a large enough effect; title and protocol of this record describe different tests; also: nearly all actives have a fitted effect of over 45% in size; also: potency is read from the fitted curve at half-maximal effect); details: ALDH inhibition qHTS; series mostly up to 45.4 µM
[3] = target: Aldehyde dehydrogenase, mitochondrial (Homo sapiens) (UniProt P05091); assay: qHTS for Inhibitors of the Aldehyde Dehydrogenase Family (ALDH2) Primary screen (AID 2061308); details: ALDH2 enzyme inhibition qHTS, 1536-well; series mostly up to 56 µM; also: nearly all actives have a fitted effect of over 55% in size; also: potency is read from the fitted curve at half-maximal effect
[4] = target: Retinaldehyde dehydrogenase 3 (Homo sapiens) (UniProt P47895); assay: qHTS for Inhibitors of the Aldehyde Dehydrogenase Family (ALDH1A3) Validation screen (AID 2061312); details: ALDH1A3 enzyme inhibition qHTS validation, fluorescence; series mostly up to 42.4 µM; also: nearly all actives have a fitted effect of over 45% in size; also: potency is read from the fitted curve at half-maximal effect
[5] = target: Retinaldehyde dehydrogenase 3 (Homo sapiens) (UniProt P47895); assay: qHTS for Inhibitors of the Aldehyde Dehydrogenase Family (ALDH1A3) Primary screen (AID 2061315); details: ALDH inhibition qHTS; series mostly up to 56 µM; also: potency is read from the fitted curve at half-maximal effect
[6] = target: Aldehyde dehydrogenase 1A1 (Homo sapiens) (UniProt P00352); assay: qHTS for Inhibitors of the Aldehyde Dehydrogenase Family (ALDH1A1) Confirmatory screens (AID 2061316); details: ALDH inhibition qHTS; series mostly up to 47.3 µM; also: nearly all actives have a fitted effect of over 65% in size; also: potency is read from the fitted curve at half-maximal effect

**Q.** With Cc1cc(C(C)(C)C)c(O)c(C)c1CC1=NCCN1 as the compound, how does the activation [1] read?
**A.** inactive: -40.9, -1.95, -26.6, 5.25% [separate samples]

**Q.** How did the Potency [2] turn out when O=C(O)c1ccc(-n2cccc2/C=C2\SC(=O)N(Cc3ccc(Cl)cc3)C2=O)cc1 was run?
**A.** active: 15.8 µM [sample A] and inactive [sample B]

**Q.** And the Potency [3]?
**A.** active: 12.6 µM [sample A] and inactive [sample B]

**Q.** CC(=O)Nc1sc2c(c1-c1nc3ccccc3s1)CNC2 was tested. Which Potency [3] did it give?
**A.** active: 11.2 µM and inactive (3×) [separate samples]

**Q.** How did the Potency [4] turn out when CC(C)(C)c1ccc(S(=O)(=O)/C=C/C#N)cc1 was run?
**A.** inactive [sample A] and active: 4.47 µM [sample B]

**Q.** How did the Potency [4] turn out when O=C1NC(=O)/C(=C/c2ccc3c(c2)OC(F)(F)O3)S1 was run?
**A.** inactive [sample A] and active: 31.6 µM [sample B]

**Q.** COc1cc(Nc2ncc(F)c(Nc3ccc4c(n3)NC(=O)C(C)(C)O4)n2)cc(OC)c1OC was tested. Which Potency [5] did it give?
**A.** inactive [sample A] and inactive [sample B] and active: 11.2 µM [sample C]

**Q.** CCOc1ccc(Nc2nc(-c3c(C)nc4ccccn34)cs2)cc1 was tested. Which Potency [6] did it give?
**A.** active: 7.98 µM [sample A] and inactive [sample B]

**Q.** Cc1cc(C)c2c(c1)C(N(Cc1cc(C(F)(F)F)cc(C(F)(F)F)c1)c1nnn(C)n1)CCCN2CC1CCC(C(=O)O)CC1 (centres undefined) was tested. Which Potency [6] did it give?
**A.** active: 11.3 µM [sample A] and inactive [sample B]

Source: PubChem BioAssay (NCATS)
